In all, about 150,000 compounds went through this assay and about 540 (0.36%) showed an effect of 50% or more. This is one part of the list.

The experiment concerns Plasmodium falciparum. Nature of the experiment: Primary screen in NF54 nanoGlo assay, in single point, at 2uM, 72h; a lower Z score goes with more inhibition. In kind it is functional, Erythrocyte. The settings on record: timepoint 72 hour.
For the compound `CC(C)Oc1ccc(NS(=O)(=O)CCCC(F)(F)F)c(F)c1`, the % Inhibition (in general, the change of the read-out against control, counted positive when it falls) is given as -17% and the Z score is 1.74.

For the compound `CCc1ocnc1C(=O)NC1CCN(c2nccn2C)CC1`, the “% Inhibition” value amounted to 11% and the Z score is -1.43.

In the case of `COc1cccc(C(=O)OCC(=O)Nc2c(C#N)c(C)c(C)n2-c2ccccc2)c1`, the “% Inhibition” value is recorded as -9% and the Z score came out at 1.1.

Take `NC(=O)C1CCCC(NC(=O)CCC2CCCO2)C1` (stereo unspecified): the “% Inhibition” value is given as -7% and the Z score is recorded as 0.79.

On to `O=C1NCCN1CCn1ccnc1-c1ccncc1`, for which the “% Inhibition” value is on record as -13% and the Z score turned out to be 1.54.

`Cc1cc2c(cc1S(=O)(=O)Nc1cccc(C#N)c1)OCC(=O)N2Cc1noc(C2CC2)n1`: the “% Inhibition” value is given as 2% and the Z score is on record as -0.25.

On to `CCc1sc(NCc2nc(C)cc(C)n2)nc1C`, for which the “% Inhibition” value was determined as 3% and the Z score is -0.42.

On to `Cc1ncc(CN2CCC(NC(=O)c3cn[nH]c3C)C(C)C2)s1` (stereo unspecified), for which the “% Inhibition” value amounted to 1% and the Z score was -0.1.

Turning to `Cc1nnc(CN(C)C(=O)[C@@H]2NCCOc3ccccc32)n1C`, the “% Inhibition” value is listed as -3% and the Z score came out at 0.51.

With `c1sc(C2CC2)nc1Cn1cnc2c1CCNC21CCOCC1`, the “% Inhibition” value is recorded as 1% and the Z score is -0.24.

Take `O=C(NC1CCC(C(=O)N2CCCO2)CC1)C1CCCC1` (stereo unspecified): the “% Inhibition” value is reported as -14% and the Z score is recorded as 1.48.

For `CCOc1cc(CN2CCC3(CC2)CNC(=O)C3)cc(Cl)c1O`, the “% Inhibition” value worked out at 1% and the Z score was -0.2.

As for `O=C(COc1ccccc1F)NC(C1CC1)C1CC1`, the “% Inhibition” value is given as -2% and the Z score was determined as 0.22.

Turning to `N#Cc1c(N2CCCCC2)ncc2c(=O)c3ccccc3[nH]c12`, the “% Inhibition” value stood at 33% and the Z score was -0.75.

Consider `O=C(NCCCN1CCCC1=O)c1ccc2ccccc2n1`, for which the “% Inhibition” value was -18% and the Z score came out at 1.49.

With `Cc1ccccc1CNC[C@H]1O[C@@H]2C[C@H](CC(=O)NCc3ccc(F)cc3)O[C@@H]2[C@@H]1O`, the “% Inhibition” value was -8% and the Z score was found to be 1.38.

For `Cc1cccc(NC(=O)CCc2nc(-c3ccc(S(=O)(=O)N4CCCC4)cc3)no2)c1C`, the “% Inhibition” value came to 0% and the Z score was determined as 0.05.

`NC(=O)CCn1cc(CN2CCC[C@H](Cc3cccnc3)C2)c2ccccc21`: the “% Inhibition” value was found to be 8% and the Z score was -1.09.

Consider `O=C(Nc1nnc(CCCc2ccccc2)s1)c1ccc2c(c1)OCO2`, for which the “% Inhibition” value is on record as -10% and the Z score is recorded as 1.91.

Turning to `CCCNC(=O)c1c(C(F)(F)F)nn(C2CCN(C(C)C)CC2)c1C`, the “% Inhibition” value was -4% and the Z score is on record as 0.76.

For `CC(F)(F)CC(=O)N1CCCC2(CC2)C1`, the “% Inhibition” value worked out at 4% and the Z score was -0.47.

For `COc1ccc(Cl)cc1NC(=O)CN(CC(=O)Nc1ccccc1)Cc1ccco1`, the “% Inhibition” value was -9% and the Z score is reported as 1.64.

Consider `C[C@@H]1CN(CCCCO)CCN1C(=O)OC(C)(C)C`, for which the “% Inhibition” value is -1% and the Z score amounted to 0.08.

With `Cc1cc2c(cc1S(=O)(=O)N(C)CC(=O)NC1CCCCCCC1)OCC(=O)N2`, the “% Inhibition” value is listed as -4% and the Z score amounted to 0.44.

For the compound `CN1c2cccnc2CN(CC2CCCCC2)CC[C@H]1CO`, the “% Inhibition” value is on record as 28% and the Z score is listed as -3.24.

Consider `CC1CN(C(=O)C2CC2c2cccc(F)c2F)CCN1` (stereo unspecified), for which the “% Inhibition” value is recorded as 0% and the Z score is reported as -0.05.

On to `COc1ccc([C@@H]2CCCN2C(=O)c2nc(-c3ccccc3)n(-c3ccccc3)n2)cc1OC`, for which the “% Inhibition” value is on record as 3% and the Z score is given as -0.64.

`COc1cccc(CN(C)Cc2cc(C)[nH]n2)c1OC[C@@H](O)CN1CCOCC1`: the “% Inhibition” value is given as -2% and the Z score is 0.44.

As to `CCCCN(CC(=O)N1CCCN(c2ccc(-c3ccc(OC)c(OC)c3)nn2)CC1)C(=O)c1cccc(F)c1`, the “% Inhibition” value is on record as -6% and the Z score is listed as 0.97.

With `CCc1nnc(NCc2cc(COC)cs2)o1`, the “% Inhibition” value is listed as -14% and the Z score stood at 1.34.

As to `C[C@H](NCc1nnnn1CC(F)(F)F)c1cccc(C2CC2)c1`, the “% Inhibition” value is on record as 2% and the Z score is reported as -0.2.

Regarding `Cc1nn(-c2ccc3nncn3n2)c(C)c1CCC(=O)Nc1ccc(F)cc1`, the “% Inhibition” value is given as -16% and the Z score worked out at 1.96.

Consider `CC(=O)N1CCC[C@H](NC(=O)c2[nH]cnc2C)C1`, for which the “% Inhibition” value was -9% and the Z score was 1.73.

In the case of `CC1(CN2CCOCC2)CCN(CC(=O)N2CCc3sccc3C2)CC1`, the “% Inhibition” value is 35% and the Z score is on record as -4.71.

For `COc1nn(C)cc1NCc1ccncc1`, the “% Inhibition” value was -6% and the Z score stood at 0.79.

In the case of `Cc1cccc(S(=O)(=O)N2CCC(n3cnnc3C3CC3)CC2)c1`, the “% Inhibition” value was found to be 0% and the Z score is 0.05.

As for `O=c1c2ccccc2nc(-c2cccc(OCc3ccccc3)c2)n1Cc1ccc(F)cc1`, the “% Inhibition” value is -3% and the Z score is 0.39.

`Cn1cccc1[C@H](CNS(=O)(=O)c1ccccc1)N1CCCC1`: the “% Inhibition” value is on record as -5% and the Z score is reported as 0.79.

Regarding `NC(=O)c1csc(N2CC[C@H](N3CCCCCC3)[C@@H](O)C2)n1`, the “% Inhibition” value is listed as 2% and the Z score is -0.2.

As for `CCOc1cc(-c2c(C#N)c(N)nc3c2CNCC3)cc(Cl)c1OCC`, the “% Inhibition” value was found to be 30% and the Z score was -3.43.

For `CCc1ccccc1OC1CN(C(=O)CN2CC(=O)NC2=O)C1`, the “% Inhibition” value was -6% and the Z score is 1.07.

`COc1cccc(CNC(=O)CCCN2C(=O)CCn3nc(-c4cccn4C)cc32)c1`: the “% Inhibition” value is -10% and the Z score is listed as 1.8.

Regarding `O=C(CCCc1ccccc1)N1CC(N(Cc2ccncc2)CC2CC2)C1`, the “% Inhibition” value is given as 3% and the Z score was -0.49.

The record behind these values is ChEMBL document CHEMBL4888484, “Replenishing the malaria drug discovery pipeline: Screening and hit evaluation of the MMV Hit Generation Library 1 (HGL1) against asexual blood stage Plasmodium falciparum ,using a nano luciferase reporter read-out” (2022).
